In the supplement of paper PMC11369174, “Proteome-scale characterisation of motif-based interactome rewiring by disease mutations” (Molecular Systems Biology, 2024):
Some of the results follow. The data scatter; read single values as rough.

T1: DOK1_PTB__Q99704_151_256
T1 chain: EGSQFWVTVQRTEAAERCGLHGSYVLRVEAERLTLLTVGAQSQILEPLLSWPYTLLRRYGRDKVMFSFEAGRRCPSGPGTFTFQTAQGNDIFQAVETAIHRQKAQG

T2: IRS2_PTB__Q9Y4H2_188_304
T2 chain: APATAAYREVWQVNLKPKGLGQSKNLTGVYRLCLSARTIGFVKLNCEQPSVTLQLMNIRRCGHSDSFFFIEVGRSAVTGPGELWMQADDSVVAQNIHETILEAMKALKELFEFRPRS

T3: MSN_FERM_1_P26038_1_322
T3 chain: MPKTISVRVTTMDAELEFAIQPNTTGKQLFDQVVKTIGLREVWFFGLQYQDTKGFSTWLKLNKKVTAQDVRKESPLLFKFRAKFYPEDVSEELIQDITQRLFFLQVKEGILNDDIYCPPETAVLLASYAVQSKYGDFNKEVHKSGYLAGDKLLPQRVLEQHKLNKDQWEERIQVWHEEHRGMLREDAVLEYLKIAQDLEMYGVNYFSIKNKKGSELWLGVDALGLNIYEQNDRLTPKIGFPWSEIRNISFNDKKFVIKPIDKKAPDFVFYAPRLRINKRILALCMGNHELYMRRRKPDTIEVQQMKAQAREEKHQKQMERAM

T4: RDX_FERM_1_P35241_5_295
T4 chain: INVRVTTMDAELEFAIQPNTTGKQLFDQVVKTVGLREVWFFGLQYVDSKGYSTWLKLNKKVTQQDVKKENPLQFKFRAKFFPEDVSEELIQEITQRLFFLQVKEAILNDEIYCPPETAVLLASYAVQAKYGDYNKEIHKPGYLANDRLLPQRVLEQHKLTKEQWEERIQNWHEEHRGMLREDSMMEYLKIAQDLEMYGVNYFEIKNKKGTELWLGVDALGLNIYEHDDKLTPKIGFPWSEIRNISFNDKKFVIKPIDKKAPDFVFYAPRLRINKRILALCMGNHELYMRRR

T5: EIF3B_RRM__P55884_172_274
T5 chain: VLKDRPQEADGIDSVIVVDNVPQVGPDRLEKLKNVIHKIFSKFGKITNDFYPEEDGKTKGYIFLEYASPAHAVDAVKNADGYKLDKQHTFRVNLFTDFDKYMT

T6: EPHB2_Pkinase__P29323_604_898
T6 chain: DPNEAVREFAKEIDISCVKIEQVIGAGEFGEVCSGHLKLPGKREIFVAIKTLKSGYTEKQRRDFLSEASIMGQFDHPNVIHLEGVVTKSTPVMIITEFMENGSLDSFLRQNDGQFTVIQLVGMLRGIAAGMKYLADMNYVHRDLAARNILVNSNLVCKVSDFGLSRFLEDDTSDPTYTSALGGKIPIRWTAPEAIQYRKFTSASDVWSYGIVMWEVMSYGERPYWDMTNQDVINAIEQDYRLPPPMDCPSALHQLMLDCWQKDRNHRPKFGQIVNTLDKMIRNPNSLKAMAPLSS


Molecular target: T1, DOK1_PTB__Q99704_151_256
Assay: mutation enrichment score (mutant vs wild-type peptide binding to bait); baits are purified protein domains named by gene / domain / UniProt id / residues; peptides come from disordered regions of human proteins; higher = mutation enhances binding relative to wild type
Details: number of wild-type / mutant comparisons summed (bounds the score): 5; paper call: no_effect; wild-type window: …

Binder | mutation enrichment score
IYDLFVWMHYYVSMDALLGGYEIWRDIDFAHEAPAFLPWHR [S192Y S192Y] | 2
NGRSFHKTCFHCMACRKALDRTTVAAHESEIYCKVCYGRRY [S46R S46R] | 2
KTMSGTFLLRFSESSEGGITWSWVEHQDDDKVLIYSVQPYT [C612W C612W] | 5
VGPAQPSHWKVLSSSGSEAAMPSVCFLVPPPNQEAQEAVTR [V988M V988M] | -4.6
LSSSALNNEFFTHAAQSWRELLADGEFTHEMQVRIRQEMEK [R323L R323L] | 4.9
VHKRRYLLQPIAVEVFSGDGWNYLLAFQKGIRNKVYQRFLA [R2637W R2637W] | 5
DELDCLIKGILYIDSVGFNGWSQCYYFENPADSEKCQKLPF [R357W R357W] | 5

molecular target: USP7_MATH-TRAF__Q93009_53_206; assay: as above; details: number of wild-type / mutant comparisons summed (bounds the score): 5; paper call: no_effect; wild-type window: …
Sequence (chain, as listed by the source): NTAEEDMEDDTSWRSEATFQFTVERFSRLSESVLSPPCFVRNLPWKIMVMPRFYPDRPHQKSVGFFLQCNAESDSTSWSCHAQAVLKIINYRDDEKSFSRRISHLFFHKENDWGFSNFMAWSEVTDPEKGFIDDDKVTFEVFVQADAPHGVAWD

Binder | mutation enrichment score
VGPAQPSHWKVLSSSGSEAAMPSVCFLVPPPNQEAQEAVTR [V988M V988M] | 1.2

Molecular target: T2, IRS2_PTB__Q9Y4H2_188_304
Assay: as above
Details: number of wild-type / mutant comparisons summed (bounds the score): 6; paper call: no_effect; wild-type window: …

Binder | mutation enrichment score
VHKRRYLLQPIAVEVFSGDGWNYLLAFQKGIRNKVYQRFLA [R2637W R2637W] | 4

molecular target: EZR_FERM_1_P15311_2_295; assay: as above; details: number of wild-type / mutant comparisons summed (bounds the score): 5; paper call: no_effect; wild-type window: …
Sequence (chain, as listed by the source): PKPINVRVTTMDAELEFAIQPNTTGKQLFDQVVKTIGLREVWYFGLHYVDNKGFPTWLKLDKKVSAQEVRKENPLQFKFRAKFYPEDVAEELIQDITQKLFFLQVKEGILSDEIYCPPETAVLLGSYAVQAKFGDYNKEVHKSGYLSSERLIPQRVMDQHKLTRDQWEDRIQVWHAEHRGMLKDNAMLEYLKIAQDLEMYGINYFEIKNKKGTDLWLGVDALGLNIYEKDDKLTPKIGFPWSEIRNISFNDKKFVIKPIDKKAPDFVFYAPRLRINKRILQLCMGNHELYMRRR

Binder | mutation enrichment score
DELDCLIKGILYIDSVGFNGWSQCYYFENPADSEKCQKLPF [R357W R357W] | 5

Molecular target: T3, MSN_FERM_1_P26038_1_322
Assay: as above
Details: number of wild-type / mutant comparisons summed (bounds the score): 6; paper call: no_effect; wild-type window: …

Binder | mutation enrichment score
DELDCLIKGILYIDSVGFNGWSQCYYFENPADSEKCQKLPF [R357W R357W] | 5.3

Molecular target: T4, RDX_FERM_1_P35241_5_295
Assay: as above
Details: number of wild-type / mutant comparisons summed (bounds the score): 6; paper call: no_effect; wild-type window: …

Binder | mutation enrichment score
DELDCLIKGILYIDSVGFNGWSQCYYFENPADSEKCQKLPF [R357W R357W] | 3.8

Molecular target: T5, EIF3B_RRM__P55884_172_274
Assay: as above
Details: number of wild-type / mutant comparisons summed (bounds the score): 6; paper call: no_effect; wild-type window: …

Binder | mutation enrichment score
LVGFSVSAALQVTQTLQWVVCNWTDLENSIVSVERMQDYAW [R1221C R1221C] | -2.4
LVGFSVSAALQVTQTLQWVVHNWTDLENSIVSVERMQDYAW [R1221H R1221H] | -4
DPVSEVPAVSQHPRTKSSRLEGSSLSSESARHKAVEFSSGA [Q1338E Q1338E] | 1
AHFENRKKEEEELVSLKDRIKRRRAERAEQQRIRNEREKER [E138K E138K] | -4
ENRKKEEEELVSLKDRIERRPAERAEQQRIRNEREKERQNR [R141P R141P] | -4
ENRKKEEEELVSLKDRIERRQAERAEQQRIRNEREKERQNR [R141Q R141Q] | -4
ENRKKEEEELVSLKDRIERRWAERAEQQRIRNEREKERQNR [R141W R141W] | -4
KKEEEELVSLKDRIERRRAEGAEQQRIRNEREKERQNRLAE [R144G R144G] | -4
KKEEEELVSLKDRIERRRAEWAEQQRIRNEREKERQNRLAE [R144W R144W] | -4
MEPGPTAAQRRCSLPPWLPLWLLLWSGLALGA [C12W C12W] | 3

molecular target: MAP1LC3A_ATG8__Q9H492_2_121; assay: as above; details: number of wild-type / mutant comparisons summed (bounds the score): 6; paper call: no_effect; wild-type window: …

Binder | mutation enrichment score
LVGFSVSAALQVTQTLQWVVCNWTDLENSIVSVERMQDYAW [R1221C R1221C] | 1

molecular target: MAP1LC3B_ATG8__Q9GZQ8_2_119; assay: as above; details: number of wild-type / mutant comparisons summed (bounds the score): 6; paper call: no_effect; wild-type window: …

Binder | mutation enrichment score
LVGFSVSAALQVTQTLQWVVCNWTDLENSIVSVERMQDYAW [R1221C R1221C] | 5.4

molecular target: USP7_MATH-TRAF__Q93009_53_206; assay: as above; details: number of wild-type / mutant comparisons summed (bounds the score): 10; paper call: no_effect; wild-type window: …

Binder | mutation enrichment score
DPVSEVPAVSQHPRTKSSRLEGSSLSSESARHKAVEFSSGA [Q1338E Q1338E] | 3

Molecular target: T5, EIF3B_RRM__P55884_172_274
Assay: as above
Details: number of wild-type / mutant comparisons summed (bounds the score): 12; paper call: no_effect; wild-type window: …

Binder | mutation enrichment score
FENRKKEEEELVSLKDRIERCRAERAEQQRIRNEREKERQN [R140C R140C] | -1
ENRKKEEEELVSLKDRIERRGAERAEQQRIRNEREKERQNR [R141G R141G] | -4

molecular target: EIF4E_eIF4E__P06730_1_217, P06730; assay: as above; details: number of wild-type / mutant comparisons summed (bounds the score): 6; paper call: diminished; wild-type window: …
Sequence (P06730 whole entry): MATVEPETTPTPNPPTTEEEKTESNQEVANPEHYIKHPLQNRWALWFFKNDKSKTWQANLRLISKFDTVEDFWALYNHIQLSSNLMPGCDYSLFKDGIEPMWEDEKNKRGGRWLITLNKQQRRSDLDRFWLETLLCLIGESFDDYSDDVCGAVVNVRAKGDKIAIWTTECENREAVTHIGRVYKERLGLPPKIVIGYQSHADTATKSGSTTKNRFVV

Binder | mutation enrichment score
LTLFVNGQPRPLESSQVKYLHRELIELRNKVNRLLDSLEPP [R106H R106H] | -6

same assay, conditions: number of wild-type / mutant comparisons summed (bounds the score): 6; paper call: enhanced; wild-type window: …

Binder | mutation enrichment score
RVPERLLFIIDGFDELKPSFYDPQGPWCLCWEEKRPTELLL [H304Y H304Y] | 6

same assay, conditions: number of wild-type / mutant comparisons summed (bounds the score): 6; paper call: no_effect; wild-type window: …

Binder | mutation enrichment score
DHFDTYADALWWGLITLTTICYGDKYPQTWNGRLLAATFTL [G279C G279C] | 1
SPQAPGSPEDSEGVPLISLPCVPQGGSQPGPSRGLSLMSSQ [R1839C R1839C] | 2
FIIIVFGFWAFGKHSAAADIISSLSEDQVPGPFLVMVLIQF [T2221I T2221I] | 2
PTTIAAVPPYIGPDTPALRTPSEYARPHVMSPTNRNHPFYM [L1256P L1256P] | 3

Molecular target: T6, EPHB2_Pkinase__P29323_604_898
Assay: as above
Details: number of wild-type / mutant comparisons summed (bounds the score): 6; paper call: no_effect; wild-type window: …

Binder | mutation enrichment score
DHFDTYADALWWGLITLTTICYGDKYPQTWNGRLLAATFTL [G279C G279C] | -1

molecular target: Src_SH3__P12931_87_144; assay: as above; details: number of wild-type / mutant comparisons summed (bounds the score): 12; paper call: no_effect; wild-type window: …

Binder | mutation enrichment score
SPQAPGSPEDSEGVPLISLPCVPQGGSQPGPSRGLSLMSSQ [R1839C R1839C] | 4

molecular target: NEDD4_WW_2_P46934_765_803; assay: as above; details: number of wild-type / mutant comparisons summed (bounds the score): 6; paper call: no_effect; wild-type window: …
Sequence (chain, as listed by the source): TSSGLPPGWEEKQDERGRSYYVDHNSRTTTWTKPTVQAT

Binder | mutation enrichment score
PTTIAAVPPYIGPDTPALRTPSEYARPHVMSPTNRNHPFYM [L1256P L1256P] | 4

molecular target: EIF4E_eIF4E__P06730_1_217, P06730; assay: as above; details: number of wild-type / mutant comparisons summed (bounds the score): 12; paper call: no_effect; wild-type window: …

Binder | mutation enrichment score
LTLFVNGQPRPLESSQVKYLCRELIELRNKVNRLLDSLEPP [R106C R106C] | 0.52
